# Assay results reported in the supplement of paper PMC4967469.
# The IC50 comes from the fitted curve, where viability falls to half of the control; fits outside the tested doses are given as limits. AUC is the area under the same curve over the 256-fold range up to the top dose, as a fraction; the more sensitive the line, the further below 1. For some of these results: The top dose, if marked as inferred, was derived from the fitted curves, not read from the paper.
# Columns and labels:
# Experiment in all cases: Viability of human cancer cell lines after 72 h of drug (GDSC screen)
# CCT018159 = compound: CCc1cc(-c2n[nH]c(C)c2-c2ccc3c(c2)OCCO3)c(O)cc1O [CCT018159]; conditions: top dose 10 µM; top dose inferred
# Method: (§1)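 Human cancer cell lines in 384-well plates, medium with 10% serum, drug for 72 h over a 256-fold dose range (nine 2-fold or five 4-fold steps up to the top dose). Adherent lines were fixed and stained with the nucleic acid dye Syto60, suspension lines read with resazurin; signal relative to control wells, capped at 0 and 100%. One two-parameter sigmoid per drug and line, fitted in a mixed model over all curves with the slope shared within a line.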
# BIX02189 = compound: CN(C)Cc1cccc(N=C(c2ccccc2)c2c(O)[nH]c3cc(C(=O)N(C)C)ccc23)c1 [BIX02189]; conditions: top dose 20 µM; top dose inferred
# Method: as §1
# TG101348 = compound: Cc1cnc(Nc2ccc(OCCN3CCCC3)cc2)nc1Nc1cccc(S(=O)(=O)NC(C)(C)C)c1 [TG101348]; conditions: top dose 10.24 µM
# Method: as §1
# OSI-027 = compound: COc1cccc2cc(-c3nc([C@H]4CC[C@H](C(=O)O)CC4)n4ncnc(N)c34)[nH]c12 [OSI-027]; conditions: top dose 20 µM
# Method: as §1
# Doxorubicin = compound: COc1cccc2c1C(=O)c1c(O)c3c(c(O)c1C2=O)C[C@@](O)(C(=O)CO)C[C@@H]3O[C@H]1C[C@H](N)[C@H](O)[C@H](C)O1 [Doxorubicin]; conditions: top dose 1.024 µM
# Method: as §1
# Dimethyloxalylglycine = compound: COC(=O)CNC(=O)C(=O)OC [Dimethyloxalylglycine]; conditions: top dose 4000 µM; top dose inferred
# Method: as §1
# UNC1215 = compound: O=C(c1ccc(C(=O)N2CCC(N3CCCC3)CC2)c(Nc2ccccc2)c1)N1CCC(N2CCCC2)CC1 [UNC1215]; conditions: top dose 1 µM; top dose inferred
# Method: as §1
# VX-11e = compound: Cc1cnc(Nc2ccc(F)cc2Cl)nc1-c1c[nH]c(C(=O)N[C@H](CO)c2cccc(Cl)c2)c1 [VX-11e]; conditions: top dose 5.12 µM; top dose inferred
# Method: as §1
Cell Line,AUC (CCT018159),IC50 (CCT018159) [µM],AUC (BIX02189),IC50 (BIX02189) [µM],AUC (TG101348),IC50 (TG101348) [µM],AUC (OSI-027),IC50 (OSI-027) [µM],AUC (Doxorubicin),IC50 (Doxorubicin) [µM],AUC (Dimethyloxalylglycine),IC50 (Dimethyloxalylglycine) [µM],AUC (UNC1215),IC50 (UNC1215) [µM],AUC (VX-11e),IC50 (VX-11e) [µM]
"SW156 (kidney, adherent)",0.947,> 10,0.932,> 20,0.871,> 10.2,0.772,8.6,0.77,0.433,0.764,1610,0.975,> 1,0.981,> 5.12
"KYSE-270 (oesophagus, adherent)",0.942,> 10,0.952,> 20,0.883,8.2,0.707,4.32,0.17,0.0079,0.454,191,0.99,> 1,0.945,> 5.12
"SW1088 (glioma, adherent)",0.896,> 10,0.933,> 20,0.831,9.3,0.839,> 20,0.831,0.938,0.739,1510,0.975,> 1,0.979,> 5.12
"TE-441-T (rhabdomyosarcoma, adherent)",–,–,0.946,> 20,0.91,> 10.2,0.677,3.83,0.557,0.0907,0.791,1720,–,–,0.963,> 5.12
"RT-112 (bladder, adherent)",0.844,7.99,0.913,> 20,0.804,5.58,0.458,0.95,0.342,0.0225,0.492,238,0.983,> 1,0.956,> 5.12
"NCI-H2171 (small cell lung carcinoma, suspension)",–,–,0.991,> 20,0.8,4.21,0.561,1.79,0.747,0.29,0.841,2250,–,–,0.992,> 5.12
"HO-1-N-1 (head and neck, adherent)",0.897,> 10,0.98,> 20,0.965,> 10.2,0.888,19.4,0.668,0.179,0.715,953,0.987,> 1,0.977,> 5.12
"Caov-3 (ovary, adherent)",–,–,0.974,> 20,0.903,> 10.2,0.67,3.47,0.8,0.427,0.675,719,–,–,0.969,> 5.12
"BICR31 (head and neck, adherent)",–,–,0.976,> 20,0.871,9.85,0.814,11.1,0.458,0.049,0.29,63.2,–,–,0.979,> 5.12
"SIG-M5 (acute myeloid leukaemia, suspension)",–,–,0.509,1.32,0.394,0.352,0.024,< 0.0781,0.351,0.0277,0.254,61.9,–,–,0.17,0.0471
"HCC1599 (breast, suspension)",–,–,0.904,> 20,0.78,4.84,0.362,0.489,0.506,0.0666,0.393,122,–,–,0.949,> 5.12
"SCC-3 (B-cell lymphoma, suspension)",–,–,0.992,> 20,0.78,3.09,0.452,0.959,0.54,0.0799,0.825,1580,–,–,0.984,> 5.12
"SNU-475 (liver, adherent)",–,–,0.953,> 20,0.869,7.67,0.889,18.1,0.929,> 1.02,0.804,1740,–,–,0.99,> 5.12
"KYSE-180 (oesophagus, adherent)",–,–,0.93,> 20,0.884,> 10.2,0.846,13.7,0.504,0.0657,0.886,> 4000,0.982,> 1,0.945,> 5.12
"TALL-1 (T-cell lymphoblastic leukaemia, suspension)",–,–,0.972,> 20,0.913,> 10.2,0.865,16.3,0.965,> 1.02,0.91,> 4000,–,–,0.941,> 5.12
"NCI-H748 (small cell lung carcinoma, suspension)",–,–,0.905,> 20,0.667,2.13,0.191,0.111,0.669,0.216,0.513,274,–,–,0.948,> 5.12
